Sequences and labels used below:
B1: glmS ribozyme (parent)
chain: AUAAAAGCGCCAGAACUACAGAAAUGUAGUUGACGAGGAGGAGGUUUAUCGAAUUUUCGGCGGAUGCCUCCAAA

Conditions in all cases: with glucosamine-6-phosphate
Data set [1] covers variants of B1. The data set can be described thus: self-cleavage kobs at 40 uM GlcN6P; higher = faster cleavage; RNA array. In a few lines:
(§1)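 Tracking of barcoded ribozyme variants used a hybridised Cy3 probe at 37 °C, after in situ transcription by E. coli RNA polymerase on sequenced MiSeq chips. The flowed solution held 40 μM to 10 mM glucosamine-6-phosphate in HEPES/KCl/Mg(OAc)2 buffer, and imaging ran over ~14 h. kobs was taken from exponential decay fits of normalised per-tile medians, and kcat and KM from weighted Michaelis–Menten fits.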

Data set [2] covers variants of B1. Nature of the data set: self-cleavage kobs at 640 uM GlcN6P; higher = faster cleavage; RNA array. The method in brief: as §1
Data set [3] covers variants of B1. Nature of the data set: self-cleavage kobs at 160 uM GlcN6P; higher = faster cleavage; RNA array. In a few lines:
as §1

Variants of B1 are the subject of data set [4]. Nature of the data set: self-cleavage kobs at 2500 uM GlcN6P; higher = faster cleavage; RNA array. The method in brief: as §1
In data set [5] the parent is B1. The data set can be described thus: self-cleavage kobs at 10000 uM GlcN6P; higher = faster cleavage; RNA array. In a few lines:
as §1

± gives the standard error. This sample is rich in variants without activity.

Consider U46A A48U U57A G60U C67U C68A, for which the “self-cleavage kobs at 40 uM GlcN6P” value in the data set with glucosamine-6-phosphate [1] is under 1e-05 s⁻¹.
Still for that read-out and setting: the result for U47G C50G G59A reads under 1e-05 s⁻¹.
G44C G59U C70G: the “self-cleavage kobs at 40 uM GlcN6P” value with glucosamine-6-phosphate [1] was under 1e-05 s⁻¹. The “self-cleavage kobs at 640 uM GlcN6P” value with glucosamine-6-phosphate [2] is under 1e-05 s⁻¹. The “self-cleavage kobs at 160 uM GlcN6P” value with glucosamine-6-phosphate [3] is under 1e-05 s⁻¹. In the data set with glucosamine-6-phosphate [4], the “self-cleavage kobs at 2500 uM GlcN6P” value is under 1e-05 s⁻¹. Further, in the data set with glucosamine-6-phosphate [5], the “self-cleavage kobs at 10000 uM GlcN6P” value is under 1e-05 s⁻¹.
With U45G U55G, the “self-cleavage kobs at 40 uM GlcN6P” value with glucosamine-6-phosphate [1] is 0.000146 ± 1.5e-05 s⁻¹. Further, in the data set with glucosamine-6-phosphate [3], the “self-cleavage kobs at 160 uM GlcN6P” value turned out to be 0.000304 ± 4.5e-05 s⁻¹.
With G44A U49A C50G, the “self-cleavage kobs at 40 uM GlcN6P” value with glucosamine-6-phosphate [1] is under 1e-05 s⁻¹. In the data set with glucosamine-6-phosphate [3], the “self-cleavage kobs at 160 uM GlcN6P” value was under 1e-05 s⁻¹. Also, in the data set with glucosamine-6-phosphate [4], the “self-cleavage kobs at 2500 uM GlcN6P” value is under 1e-05 s⁻¹. Further, the “self-cleavage kobs at 10000 uM GlcN6P” value with glucosamine-6-phosphate [5] is under 1e-05 s⁻¹.
U46G C70U: the “self-cleavage kobs at 40 uM GlcN6P” value in the data set with glucosamine-6-phosphate [1] came out at 0.000256 ± 2.3e-05 s⁻¹. Further, the “self-cleavage kobs at 640 uM GlcN6P” value with glucosamine-6-phosphate [2] is 0.00125 ± 0.0002 s⁻¹. Further, the “self-cleavage kobs at 160 uM GlcN6P” value in the data set with glucosamine-6-phosphate [3] is 0.000556 ± 8.8e-05 s⁻¹. In addition, in the data set with glucosamine-6-phosphate [4], the “self-cleavage kobs at 2500 uM GlcN6P” value is 0.00235 ± 0.00055 s⁻¹. Besides, the “self-cleavage kobs at 10000 uM GlcN6P” value in the data set with glucosamine-6-phosphate [5] stood at 0.00705 ± 0.00083 s⁻¹.
For the variant U46C A48G, the “self-cleavage kobs at 40 uM GlcN6P” value in the data set with glucosamine-6-phosphate [1] was under 1e-05 s⁻¹. In addition, in the data set with glucosamine-6-phosphate [3], the “self-cleavage kobs at 160 uM GlcN6P” value was under 1e-05 s⁻¹. Moreover, in the data set with glucosamine-6-phosphate [4], the “self-cleavage kobs at 2500 uM GlcN6P” value was under 1e-05 s⁻¹. Also, the “self-cleavage kobs at 10000 uM GlcN6P” value with glucosamine-6-phosphate [5] was under 1e-05 s⁻¹.
Turning to U49A U54C, the “self-cleavage kobs at 40 uM GlcN6P” value in the data set with glucosamine-6-phosphate [1] was under 1e-05 s⁻¹.
As to U46C U55C, the “self-cleavage kobs at 40 uM GlcN6P” value with glucosamine-6-phosphate [1] is 0.000129 ± 1.9e-05 s⁻¹. Further, the “self-cleavage kobs at 640 uM GlcN6P” value in the data set with glucosamine-6-phosphate [2] was determined as 0.00108 ± 0.00013 s⁻¹. Moreover, the “self-cleavage kobs at 160 uM GlcN6P” value with glucosamine-6-phosphate [3] was 0.000217 ± 4.2e-05 s⁻¹. In addition, the “self-cleavage kobs at 2500 uM GlcN6P” value in the data set with glucosamine-6-phosphate [4] stood at 0.00291 ± 0.00042 s⁻¹. In addition, the “self-cleavage kobs at 10000 uM GlcN6P” value with glucosamine-6-phosphate [5] came out at 0.00515 ± 0.00071 s⁻¹.
Regarding U46A C50U, in the data set with glucosamine-6-phosphate [1], the “self-cleavage kobs at 40 uM GlcN6P” value was under 1e-05 s⁻¹. Besides, in the data set with glucosamine-6-phosphate [2], the “self-cleavage kobs at 640 uM GlcN6P” value was under 1e-05 s⁻¹. Also, in the data set with glucosamine-6-phosphate [3], the “self-cleavage kobs at 160 uM GlcN6P” value was under 1e-05 s⁻¹.
Regarding G44A U49G, in the data set with glucosamine-6-phosphate [1], the “self-cleavage kobs at 40 uM GlcN6P” value is under 1e-05 s⁻¹. Further, the “self-cleavage kobs at 640 uM GlcN6P” value with glucosamine-6-phosphate [2] is under 1e-05 s⁻¹.
A48C U69G C70U: in the data set with glucosamine-6-phosphate [1], the “self-cleavage kobs at 40 uM GlcN6P” value is under 1e-05 s⁻¹. Moreover, the “self-cleavage kobs at 2500 uM GlcN6P” value in the data set with glucosamine-6-phosphate [4] is under 1e-05 s⁻¹. The “self-cleavage kobs at 10000 uM GlcN6P” value with glucosamine-6-phosphate [5] is under 1e-05 s⁻¹.
Regarding G44U U57C G63U G66A, the “self-cleavage kobs at 40 uM GlcN6P” value in the data set with glucosamine-6-phosphate [1] was under 1e-05 s⁻¹.
In the case of A48C U49C, in the data set with glucosamine-6-phosphate [1], the “self-cleavage kobs at 40 uM GlcN6P” value was under 1e-05 s⁻¹. For the same variant, the “self-cleavage kobs at 2500 uM GlcN6P” value in the data set with glucosamine-6-phosphate [4] is under 1e-05 s⁻¹. Further, the “self-cleavage kobs at 10000 uM GlcN6P” value with glucosamine-6-phosphate [5] was under 1e-05 s⁻¹.
Take G44C U65A: the “self-cleavage kobs at 40 uM GlcN6P” value with glucosamine-6-phosphate [1] is under 1e-05 s⁻¹. Besides, the “self-cleavage kobs at 640 uM GlcN6P” value in the data set with glucosamine-6-phosphate [2] is under 1e-05 s⁻¹. Moreover, the “self-cleavage kobs at 160 uM GlcN6P” value with glucosamine-6-phosphate [3] was under 1e-05 s⁻¹.
In the case of U46C G60C C67A, in the data set with glucosamine-6-phosphate [1], the “self-cleavage kobs at 40 uM GlcN6P” value is under 1e-05 s⁻¹. In addition, the “self-cleavage kobs at 10000 uM GlcN6P” value with glucosamine-6-phosphate [5] is under 1e-05 s⁻¹.
Take A48U G60U C70A: the “self-cleavage kobs at 40 uM GlcN6P” value with glucosamine-6-phosphate [1] is under 1e-05 s⁻¹.
On the same count and under the same terms, the result for A48U G62U reads under 1e-05 s⁻¹.
For the variant A48U G62C, the “self-cleavage kobs at 40 uM GlcN6P” value with glucosamine-6-phosphate [1] was under 1e-05 s⁻¹. The “self-cleavage kobs at 640 uM GlcN6P” value with glucosamine-6-phosphate [2] was under 1e-05 s⁻¹. Further, the “self-cleavage kobs at 160 uM GlcN6P” value with glucosamine-6-phosphate [3] is under 1e-05 s⁻¹. The “self-cleavage kobs at 2500 uM GlcN6P” value with glucosamine-6-phosphate [4] is under 1e-05 s⁻¹. Besides, the “self-cleavage kobs at 10000 uM GlcN6P” value in the data set with glucosamine-6-phosphate [5] was under 1e-05 s⁻¹.
For the variant A48U C58A, the “self-cleavage kobs at 40 uM GlcN6P” value with glucosamine-6-phosphate [1] is under 1e-05 s⁻¹. Further, the “self-cleavage kobs at 640 uM GlcN6P” value with glucosamine-6-phosphate [2] was under 1e-05 s⁻¹. For the same variant, the “self-cleavage kobs at 160 uM GlcN6P” value with glucosamine-6-phosphate [3] is under 1e-05 s⁻¹. For the same variant, the “self-cleavage kobs at 2500 uM GlcN6P” value with glucosamine-6-phosphate [4] was under 1e-05 s⁻¹.
For G44U U57G, the “self-cleavage kobs at 40 uM GlcN6P” value with glucosamine-6-phosphate [1] is under 1e-05 s⁻¹. The “self-cleavage kobs at 160 uM GlcN6P” value in the data set with glucosamine-6-phosphate [3] was under 1e-05 s⁻¹. Further, in the data set with glucosamine-6-phosphate [4], the “self-cleavage kobs at 2500 uM GlcN6P” value is under 1e-05 s⁻¹. Further, the “self-cleavage kobs at 10000 uM GlcN6P” value with glucosamine-6-phosphate [5] was under 1e-05 s⁻¹.
On to G44C U49A, for which the “self-cleavage kobs at 40 uM GlcN6P” value in the data set with glucosamine-6-phosphate [1] is under 1e-05 s⁻¹. The “self-cleavage kobs at 640 uM GlcN6P” value in the data set with glucosamine-6-phosphate [2] was under 1e-05 s⁻¹. The “self-cleavage kobs at 2500 uM GlcN6P” value in the data set with glucosamine-6-phosphate [4] is under 1e-05 s⁻¹. In addition, the “self-cleavage kobs at 10000 uM GlcN6P” value with glucosamine-6-phosphate [5] was under 1e-05 s⁻¹.

The values are drawn from the supplement of paper PMC7125110.
